Source: PubChem BioAssay AID651820 (National Center for Advancing Translational Sciences (NCATS), 2012)
Hit rate of the full screen: of about 340,000 compounds, about 12,000 (3.5%) were called active. This list was built around the results that the source calls inconclusive (neither active nor inactive); the mix of calls is not that of the screen. The call rests on the fitted dose curve; in most records, active means well fitted inhibition curve with a large enough effect; inconclusive means small, poorly fitted or top-dose-only effect, or another doubt; inactive means no such curve, though single readings can be large or run the other way. Potencies of inconclusive entries are left out as doubtful fits.

Assay: qHTS Assay for Inhibitors of Hepatitis C Virus (HCV)
Settings: Huh7.5.1 HCVcc-Cre (HCVcc is cell-culture hepatitis C virus) infection, luciferase reporter, 44 h; activity change, negative = inhibition: at 41.8 µM (top of the series)
How it was run: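 Infectious HCV cell culture screen: compound-treated cells (1,000/well, pre-plated 4 h) are infected with HCVcc-Cre at roughly 0.5 moi and grown 44 h. Infection is quantified by luciferase signal after 15 min substrate incubation at room temperature.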
On the % scale 0 is the no-effect control and ±100 the full control effect; potency means the concentration at half of the fitted maximal effect; tags describe the fitted curve by direction and shape.

SMILES | Potency | activity change, negative = inhibition
Cc1cc(N2CCN(c3cccc(C)c3C)CC2)nc(-c2ccccc2)n1 | inconclusive [inhibitor, single point] | 
COc1cccc(Cn2nnc3c(=O)[nH]c(C4CCCN(C(=O)c5ccccc5Cl)C4)nc32)c1 (stereo not given) |  | inactive: -10.8%
CCN(CC)CCNC(=O)c1[nH]c2ccc(OCc3ccccc3)cc2c1C | active: 10 µM | 
CN(C)c1ccc(C(=O)Nc2ccc(S(=O)(=O)NC3=NCCCCC3)cc2)cc1 |  | inactive: -21.7%
Cc1cc2nc(C3CCN(C(=S)NCC(C)C)CC3)[nH]c2cc1C | inconclusive [inhibitor, single point] | 
COc1ccc(NC(=O)c2nn(C)cc2[N+](=O)[O-])cc1 |  | inactive: 0.035%
O=C(Nc1ccc(F)cc1)NC1CCN(Cc2nnnn2Cc2ccco2)CC1 | inconclusive [inhibitor, full curve, poor fit] | 
COC(=O)c1ccccc1NC(=O)c1cccnc1 | inconclusive [inhibitor, single point] | 
Cc1ccc(-c2sc(-c3cccnc3)nc2CC(=O)O)cc1 |  | inactive: 10.2%
N/C(=N\OC(=O)c1ccc(Cl)c([N+](=O)[O-])c1)c1ccccn1 | inconclusive [inhibitor, single point] | 
CCn1c(=NC(=O)c2ccc(S(=O)(=O)N(C)C)cc2)sc2cccc(OC)c21 | inconclusive [inhibitor, partial curve] | 
COc1ccccc1NC(=O)Nc1nc(CC(=O)Nc2ccc(F)c(F)c2)cs1 | inconclusive [inhibitor, partial curve] | 
Cc1ccc(C2CC(C(F)F)n3ncc(C(=O)Nc4c(C)nn(Cc5c(F)cccc5Cl)c4C)c3N2)cc1 (stereo not given) | inconclusive [inhibitor, single point] | 
COCCNC(=O)Cn1nc(-c2ccc(C)cc2)c2ccccc2c1=O |  | inactive: 2.18%
O=C(Cn1cc(C(=O)C2CC2)c2ccccc21)NCc1ccccc1 | inconclusive [inhibitor, single point] | 
CCCc1cc(=O)oc2cc(OCC(=O)NC(Cc3ccc(Cl)cc3)C(=O)O)ccc12 (stereo not given) | active: 0.501 µM | 
NS(=O)(=O)c1ccc(CCNC(=O)c2cc(-c3ccccn3)nc3ccc(Br)cc23)cc1 | inconclusive [inhibitor, partial curve] | 
CCO[C@H]1OC(C(=O)N2CCN(Cc3ccc4c(c3)OCO4)CC2)=C[C@@H](c2ccc(C(F)(F)F)cc2)[C@@H]1CCCO | inconclusive [inhibitor, single point] | 
Cc1ccc(-n2c(SCC(N)=O)nnc2-c2ccc(S(=O)(=O)N3CCCCC3)cc2)c(C)c1 | inconclusive [inhibitor, single point] | 
O=C(Nc1cnn(Cc2ccc(F)cc2)c1)c1cnn2c(C(F)F)cc(-c3ccccc3)nc12 | inconclusive [inhibitor, partial curve] | 
COc1cc(NC(=O)c2ccc(N3CCCC3=O)cc2)cc(OC)c1 | inconclusive [inhibitor, single point] | 
CSc1ccc(-c2nnn(Cc3ccccn3)n2)cc1 | inconclusive [inhibitor, full curve, poor fit] | 
CCn1cnc2c1c(=O)n(CC(=O)NCc1ccccc1)c(=O)n2Cc1ccccc1 | inconclusive [inhibitor, single point] | 
CC(=O)c1ccc(OCC(=O)NC2CCCCCC2)cc1 |  | inactive: 9.74%

SMILES | Potency | activity change, negative = inhibition
CC(C)(C)n1ncc2c(=O)n(Cc3c(F)cccc3Cl)cnc21 | inconclusive [inhibitor, single point] | 
COc1ccc(CCNc2ccc(C(CC(N)=O)NC(=O)c3cc(OC)ccc3OC)cc2[N+](=O)[O-])cc1 (stereo not given) |  | inactive: -22.6%
Cc1ccc(-c2csc3ncnc(Sc4nnc(CN5CCCCCC5=O)o4)c23)cc1 | inconclusive [inhibitor, single point] | 
CCS(=O)c1ccccc1C(=O)OC(C)C(=O)Nc1ccc(S(=O)(=O)N2CCCC2)cc1 (stereo not given) | inconclusive [inhibitor, partial curve] | 
Cn1ccc(C(=O)N2CCCc3ccccc32)n1 |  | inactive: -2.58%
O=C(COC(=O)c1ccc2c(c1)OCCO2)NCc1ccccc1Cl |  | inactive: -1.28%
CCOC(=O)c1sc(NC(=O)c2cc(S(=O)(=O)N3CCOCC3)ccc2C)nc1C | inconclusive [inhibitor, partial curve, poor fit] | 
O=C(/C=C/NNC(=O)c1ccc(Br)cc1)c1ccccc1 | inconclusive [inhibitor, single point] | 
CCOC(=O)c1c(-c2ccccc2)csc1NC(=O)CSc1nc(N)cc(N)n1 | active: 12.6 µM | 
CSc1nc(N2CCOCC2)nc2ccc(C)cc12 | inconclusive [inhibitor, partial curve] | 
CCN1CCN(C(=O)c2ccc(CNS(=O)(=O)c3cccc(OC)c3)cc2)CC1 |  | inactive: 17.2%
CCn1ncc(/C=N/NC(=O)c2ccc3c(c2)OCO3)c1C | inconclusive [inhibitor, single point] | 
Cc1ccc(C2C(C(=O)O)c3ccccc3C(=O)N2C)o1 (stereo not given) | inconclusive [inhibitor, partial curve] | 
O=C(Nc1ccc(N2CCOCC2)cc1)c1cc(-c2ccncc2)nc2ccccc12 | inconclusive [inhibitor, partial curve] | 
Cc1cc(C(=O)CCl)c(C)n1-c1c(C)n(C)n(-c2ccccc2)c1=O | active: 8.91 µM | 
O=C(N1CCN(c2cccc(Cl)c2)CC1)C1(c2cccs2)CCOCC1 | inconclusive [inhibitor, single point] | 
CN(C)N=C1c2cc(S(=O)(=O)N3CCOCC3)ccc2-c2ccc(S(=O)(=O)N3CCOCC3)cc21 | inconclusive [inhibitor, partial curve] | 
COc1ccc2nc(NC(=O)CN(c3ccc(C)cc3)S(=O)(=O)c3c(C)nn(C)c3C)sc2c1 | inconclusive [inhibitor, single point] | 
COc1ccc(C(=O)NCC2(c3ccccc3)CCOCC2)cc1[N+](=O)[O-] |  | inactive: -3.06%
O=C(Nc1ccccc1-c1ccccc1)c1ccc(NC(=O)c2ccco2)cc1 | inconclusive [inhibitor, partial curve] | 
CCC(=NC(C)c1ccccc1)c1c(O)[nH]c(=O)[nH]c1=O (stereo not given) | inconclusive [inhibitor, single point] | 
CC1Cc2ccccc2N1C(=S)Nc1cccc(S(=O)(=O)N(C)C)c1 (stereo not given) |  | inactive: -20.6%
O=C(CN1CCN(C(C(=O)Nc2cc(C(F)(F)F)ccc2Cl)c2ccccc2)CC1)NC1CC1 (stereo not given) | inconclusive [inhibitor, single point] | 
COc1ccc(/C=C/C(=O)Nc2ccccc2F)cc1S(=O)(=O)N1CCOCC1 | active: 10 µM | 

SMILES | Potency | activity change, negative = inhibition
CNC(=S)N=Nc1c(O)[nH]c2ccc(C(C)C)cc12 | inconclusive [inhibitor, single point] | 
Cn1c(Cc2c[nH]c3ccccc23)n[nH]c1=S |  | inactive: 5.69%
C/C(=N\NC(=O)c1ccco1)c1ccc(-c2ccccc2)cc1 |  | inactive: -12.5%
CCC(C)(C)n1nnnc1CN1CCN(C(c2ccccc2)c2ccccc2)CC1 | inconclusive [inhibitor, single point] | 
N#C/C(=N/Nc1ccccc1F)C(=N)N1CCOCC1 |  | inactive: 20.1%
O=C(CN1CCN(C/C=C/c2ccccc2)CC1)Nc1cc([N+](=O)[O-])ccc1Cl | inconclusive [inhibitor, partial curve, poor fit] | 
COc1ccc2c(c1)CCc1c(C(=O)NCCCn3ccnc3)noc1-2 | inconclusive [inhibitor, single point] | 
CCN(CC)C(=O)c1oc2ccc(S(=O)(=O)N3CCCCCC3)cc2c1C | active: 25.1 µM | 
Cc1cc(N/N=C/c2ccccc2Br)nc2ccccc12 | inconclusive [inhibitor, single point] | 
CC1CC(NC(=O)CC#N)CC(C)(C)C1 (stereo not given) |  | inactive: 12.5%
Cc1ccc(CONC(=O)c2ccc(OC(F)F)cc2)cc1 |  | inactive: -20.9%
C/C(=N\NC(=O)c1ccc(CSc2nncn2C)cc1)c1ccc(Cl)cc1 | inconclusive [inhibitor, single point] | 
Cc1ccc(COn2nnc3ccc(S(=O)(=O)N4CCOCC4)cc32)cc1 | inconclusive [inhibitor, single point] | 
Cn1nc(C(F)(F)F)c(C#N)c1N1CCN(c2ccc(F)cc2)CC1 | inconclusive [inhibitor, single point] | 
CCSc1nnc(-c2cccs2)o1 |  | inactive: 2.1%
CS(=O)(=O)c1ccc(Cl)c(NC(=O)CN2CCN(S(=O)(=O)/C=C/c3ccccc3)CC2)c1 | inconclusive [inhibitor, partial curve] | 
CC(Oc1ccc(Cl)cc1Cl)C(=O)NN=C1CCN(C)CC1 (stereo not given) |  | inactive: -2.23%
CN(C)c1ccc(/C=C2\N=C(c3ccc(Cl)c([N+](=O)[O-])c3)NC2=O)cc1 |  | inactive: 2.73%
CCN(CC)c1ccc(NC(=O)COc2ccc(-n3cnnn3)cc2)cc1 | active: 22.4 µM | 
Cc1cc(Oc2ccccc2)nc(NCc2ccccc2)n1 | inconclusive [inhibitor, single point] | 
CCn1c(=O)cc(SCC(=O)Nc2ccc(OC)c(OC)c2)c2ccccc21 | inconclusive [inhibitor, full curve, poor fit] | 
CCN1CCSc2ccc(C(=O)NCc3cccc(Br)c3)cc21 | inconclusive [inhibitor, partial curve] | 
